# In all, about 390,000 compounds went through this assay and about 150 (0.038%) were called active. Inconclusive means that the source gave no clear call. Such entries were picked first, then a sample of the others. Calls follow the shape of the dose curve; as a rule, active = well fitted inhibition curve with a large enough effect; inconclusive = small, poorly fitted or top-dose-only effect; inactive = no such curve, though single readings can be large or run the other way. A potency beside an inconclusive call is a rough fit, not a confirmed value.
# Molecular target: Regulator of G-protein signaling 4 (Homo sapiens) (UniProt P49798)
# Test: Inhibitors of Regulator of G Protein Signaling (RGS) 4: qHTS; also: nearly all actives have a fitted effect of over 75% in size
# Conditions: Transcreener GDP fluorescence polarization, RGS4-accelerated GTP hydrolysis; series mostly up to 114 µM
# Summary of the method: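 MLSMR compounds (23 nl, pin-transferred) preincubated 10 min at room temperature with a 500nM (2x) first reagent, then RGS4 at 900nM (2x) plus Transcreener GDP mix added; fluorescence polarization (620/688 nm) read before and after 90 min at 30 °C.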
# Potency is read from the fitted curve at half-maximal effect; tags tell the direction and shape of the fitted curve.
# UniProt P49798, sequence (P49798 whole entry, looked up): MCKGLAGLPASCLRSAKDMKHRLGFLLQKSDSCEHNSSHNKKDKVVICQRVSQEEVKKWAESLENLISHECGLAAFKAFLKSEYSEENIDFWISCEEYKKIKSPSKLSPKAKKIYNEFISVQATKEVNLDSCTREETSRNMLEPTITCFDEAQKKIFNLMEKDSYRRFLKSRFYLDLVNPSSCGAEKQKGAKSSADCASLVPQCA
row,SMILES,Potency
1,COc1ccccc1/C=C/C=N/NC(=O)c1ccc(=O)n(C)c1,"inconclusive: 89.1 µM [inhibitor, single point]"
2,CCOCCCNC(=S)NCCCNc1nc2c(C)cc(C)cc2cc1C#N,"inconclusive: 50.1 µM [inhibitor, partial curve, poor fit]"
3,COCCn1c(NC(=S)NC(=O)C2CC2)cc(=O)[nH]c1=O,"inconclusive: 100 µM [inhibitor, partial curve, poor fit]"
4,NNC(=O)c1cc(-c2cccs2)nc2ccccc12,inactive
5,O=[N+]([O-])c1cccc(C2Nc3cccc4cccc(c34)N2)c1,"inconclusive: 89.1 µM [inhibitor, partial curve, poor fit]"
6,O=C(Nc1ccccc1)c1ccc2snnc2c1,"inconclusive: 79.4 µM [inhibitor, partial curve, poor fit]"
7,COC(=O)c1ccc(COc2ccc(/C=N/Nc3cccc(C(=O)O)c3)cc2)cc1,inactive
8,C=CCNc1nnc(SC2CC(=O)N(c3ccc(OC)cc3)C2=O)s1 (stereo not drawn),inactive
9,CCOC(=O)c1ccc(NC(=O)C2CCN(C(=O)N3CC(C)Oc4ccc(C)cc43)CC2)cc1 (stereo not drawn),inactive
10,CCOc1ccc(N=C(NN)c2ccc3ccccc3n2)cc1,"inconclusive: 79.4 µM [inhibitor, single point]"
11,O=C(/C=C/c1ccco1)NC(=S)Nc1cccc(-c2nc3ccccc3o2)c1,"inconclusive: 79.4 µM [inhibitor, partial curve, poor fit]"
12,Cc1occc1-c1nnc(SCC(=O)c2c[nH]c3ccccc23)n1C,"inconclusive: 50.1 µM [inhibitor, partial curve, poor fit]"
13,Cc1c(CC(=O)NCCCO)c(=O)oc2cc3c(cc12)CCC(C)(C)O3,inactive
14,COc1ccc(OCC(=O)N2CCN(C(=O)c3ccco3)CC2)cc1,inactive
15,Cc1ccccc1-c1nc(C(N)=O)c2c(n1)n(-c1ccc3c(c1)OCO3)c(=O)n2C,"inconclusive: 50.1 µM [inhibitor, partial curve, poor fit]"
16,COc1ccc2[nH]c(C)c(CCN3C(=O)C4CC=CCC4C3=O)c2c1 (stereo not drawn),"inconclusive: 70.8 µM [inhibitor, single point]"
17,O=C(O)c1cc(Cl)c2c(c1)[C@@H]1C=CC[C@@H]1[C@H](c1ccc(S(=O)(=O)N3CCOCC3)cc1)N2,"inconclusive: 50.1 µM [inhibitor, partial curve, poor fit]"
18,Cc1cc(N)ccc1N1CCCC1,"inconclusive: 79.4 µM [inhibitor, partial curve, poor fit]"
19,Cc1ccccc1NC(=O)CSc1nc(N)c(C#N)c(-c2cccs2)c1C#N,inactive
20,CCN(CC(=O)Nc1ccc(NC(C)=O)cc1)C(=O)/C=C/c1ccc(C)o1,"inconclusive: 100 µM [inhibitor, partial curve, poor fit]"
21,C=C(C)C1CC=C(C)/C(=N/NC(=O)c2ccccc2[N+](=O)[O-])C1 (stereo not drawn),"inconclusive: 17.8 µM [inhibitor, full curve, poor fit]"

row,SMILES,Potency
1,N#CN1CCC(NS(=O)(=O)c2ccc(C(F)(F)F)cc2)CC1,"inconclusive: 79.4 µM [inhibitor, single point]"
2,O=C(c1ccc(Br)o1)N1N=C(c2ccc(Cl)cc2)CC1c1ccco1 (stereo not drawn),"inconclusive: 17.8 µM [inhibitor, full curve, poor fit]"
3,C=CCN1CCc2c(cc(O)c(O)c2Cl)C(c2ccccc2)C1 (stereo not drawn),"inconclusive: 37.7 µM [inhibitor, single point]"
4,Cc1ccc(S(=O)(=O)N2CCC(CN3C(=O)c4cccc5cccc(c45)C3=O)CC2)cc1,inactive
5,CCN(CC(=O)Nc1ccc(NC(C)=O)cc1)C(=O)CSc1ncnc2sc(C)c(C)c12,"inconclusive: 44.7 µM [inhibitor, partial curve, poor fit]"
6,CC1=C(C(=O)O)N2C(=O)[C@@H](NC(=O)C(N)C3=CCC=CC3)[C@H]2SC1 (stereo partly drawn),"inconclusive: 11.9 µM [inhibitor, partial curve]"
7,COc1cccc(-c2cccc(NC(=O)C3CCN(Cc4ccon4)CC3)c2)c1,inactive
8,CCOC(=O)c1sc(NC(=O)CN(CC)CC)c(C(=O)OCC)c1C,inactive
9,CCOc1c(OC(C)=O)ccc(/C=C2\N=C(SCC)SC2=O)c1[N+](=O)[O-],"inconclusive: 70.8 µM [inhibitor, partial curve, poor fit]"
10,COCCn1c(SCC(=O)c2ccc(F)cc2)nnc1C(C)C,"inconclusive: 79.4 µM [inhibitor, partial curve, poor fit]"
11,CCOC(=O)c1c(-c2ccc(C)o2)csc1NC(=O)CN(C)CC(=O)Nc1ccc(C)cc1,"inconclusive: 79.4 µM [inhibitor, partial curve, poor fit]"
12,COc1ccc(/C=C/C(=O)c2ccccc2)cc1COc1ccccc1F,inactive
13,Cn1c(=O)[nH]c(=O)c2c1nc(Br)n2CCSc1nc2ccccc2o1,inactive
14,CCC(C)n1c(OC)nc2c1c(=O)n(C)c(=O)n2C (stereo not drawn),"inconclusive: 31.6 µM [inhibitor, full curve, poor fit]"
15,O=C(COc1ccc(Br)cc1CO)Nc1ccccc1F,inactive
16,S=c1[nH]nc(-c2ccc3ccccc3n2)n1-c1cc(Cl)cc(Cl)c1,"inconclusive: 79.4 µM [inhibitor, partial curve, poor fit]"
17,O=C1/C(=C\c2cccnc2)Sc2ccccc21,"inconclusive: 31.6 µM [inhibitor, full curve, poor fit]"
18,Cc1ccc(-n2c(N)c(C(=O)N3CCOCC3)sc2=S)cc1,"inconclusive: 79.4 µM [inhibitor, partial curve, poor fit]"
19,Cc1ccc(NC(=S)NNC(=S)Nc2ccc(C)cc2C)cc1,"inconclusive: 20 µM [inhibitor, full curve, poor fit]"
20,COc1cc2nc(=S)n3[nH]c(COc4ccccc4C)nc3c2cc1OC,inactive
21,CCCNC(=O)c1nnsc1S(=O)(=O)c1ccc(Cl)cc1,"inconclusive: 31.6 µM [inhibitor, full curve, poor fit]"

row,SMILES,Potency
1,Cc1ccc(S(=O)(=O)N2CCCCC2CCNC(=O)C(=O)NCC2CCCO2)cc1 (stereo not drawn),inactive
2,CC(=O)NC(c1ccco1)c1cc(Cl)c2ccccc2c1O (stereo not drawn),"inconclusive: 28.2 µM [inhibitor, full curve, poor fit]"
3,O=C(O)COc1ccccc1C(Nc1cccnc1)c1cc(Cl)c2cccnc2c1O (stereo not drawn),"inconclusive: 25.1 µM [inhibitor, full curve, poor fit]"
4,CN1CCN(C(c2ccc(Cl)cc2)c2cc(Cl)c3cccnc3c2O)CC1 (stereo not drawn),"inconclusive: 31.6 µM [inhibitor, full curve, poor fit]"
5,CCOC(=O)NC(N(O)c1cccc(Cl)c1)C(Cl)(Cl)Cl (stereo not drawn),"inconclusive: 50.1 µM [inhibitor, partial curve, poor fit]"
6,COc1ccc(CCNC(=O)c2cc(-c3ccc(C)c(C)c3O)n[nH]2)cc1OC,"inconclusive: 44.7 µM [inhibitor, partial curve, poor fit]"
7,COc1ccc(-c2nnc(SCC(=O)N3CCN(c4ccccc4)CC3)o2)cc1OC,"inconclusive: 39.8 µM [inhibitor, partial curve, poor fit]"
8,C#CCOCCOCCOCCNc1nc(N2CCN(C(=O)[C@H](CCCCN)n3cc([C@@H](N)C(C)CC)nn3)CC2)nc(N2CCN(C(=O)[C@H](Cc3cc4ccccc4[nH]3)n3cc([C@@H](N)CC(C)C)nn3)CC2)n1 (stereo partly drawn),"inconclusive: 44.7 µM [inhibitor, partial curve, poor fit]"
9,CCc1c(C)sc(NC(=O)c2cc(-c3ccc(OC)c(OC)c3)on2)c1C#N,"inconclusive: 17.8 µM [inhibitor, full curve, poor fit]"
10,CCCN1CCc2c(sc(NC(=S)NC(=O)c3ccccc3)c2C#N)C1,"inconclusive: 50.1 µM [inhibitor, partial curve, poor fit]"
11,Cc1ccccc1NC(=S)NC(=O)C1CCCCC1,"inconclusive: 79.4 µM [inhibitor, partial curve, poor fit]"
12,COc1ccc(CN(CCC(c2ccccc2)c2ccco2)C(=O)c2ccco2)cc1 (stereo not drawn),"inconclusive: 50.1 µM [inhibitor, partial curve, poor fit]"
13,O=[N+]([O-])c1ccc(/C=N/Nc2ncc(-c3ccccc3)cn2)cc1,"inconclusive: 79.4 µM [inhibitor, partial curve, poor fit]"
14,O=C(O)COc1c(Cl)cc(/C=C2\NC(=O)NC2=O)cc1Br,inactive
15,Cc1cccc(NCCC(=O)c2ccc([N+](=O)[O-])cc2)c1C,inactive
16,CCOc1cc(C(c2c(C)[nH][nH]c2=O)c2c(C)[nH][nH]c2=O)ccc1OS(=O)(=O)c1ccccc1,"inconclusive: 79.4 µM [inhibitor, partial curve, poor fit]"
17,COC(=O)Cn1c(=O)c(C)nc2ccccc21,"inconclusive: 89.1 µM [inhibitor, single point]"
18,CSc1ccccc1NC(=O)c1ccc([N+](=O)[O-])cc1,"inconclusive: 89.1 µM [inhibitor, partial curve, poor fit]"
19,Cc1cnc(C=NNC(N)=S)c2cccc(N)c12,"inconclusive: 17.8 µM [inhibitor, full curve, poor fit]"
20,Cc1ccc(C)n1-c1ccc(C(=O)N/N=C/c2ccncc2)cc1,"inconclusive: 17.8 µM [inhibitor, full curve, poor fit]"
21,CCOC(=O)c1sc(NC(=O)c2cc(-c3ccc(C)cc3)nc3ccccc23)c(C#N)c1C,"inconclusive: 31.6 µM [inhibitor, full curve, poor fit]"
